# Assay results taken from the supplement of paper PMC10037445.
# ± gives the standard deviation of the averaged measurements. Over roughly 2,900 compounds, “IRF Lucia reporter activity, fold change vs agonist alone” has its median near 0.9; the highest 2% begin near 2.8. Some of the results follow.
# Tests used:
# RAW-Dual [1] = experiment: IRF Lucia reporter activity, fold change vs agonist alone; cytotoxicity flag (confluency mask): not cytotoxic; higher = enhanced IRF activity
# Outline: (§1)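 Cytotoxic wells were those whose IncuCyte confluency was below 70% of agonist controls in both mask sets. The cells were RAW-Dual macrophages at 50,000 cells/well in DMEM on 384-well plates, dosed with 50 nL of library stock by pin tool, stimulated with a PRR agonist 1 h later, and kept at 37 °C, 5% CO2 for 20 hours. IRF and NF-κB reporter activity, as fold change over agonist-alone wells, came from supernatant read by QuantiLuc luminescence and QuantiBlue absorbance, respectively.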
# RAW-Dual [2] = experiment: IRF Lucia reporter activity, fold change vs agonist alone; higher = enhanced IRF activity; conditions: cytotoxicity flag (confluency mask): not cytotoxic, agonist: MPLA (TLR4) […]
# Outline: as §1
# RAW-Dual [3] = experiment: IRF Lucia reporter activity, fold change vs agonist alone; cytotoxicity flag (confluency mask): cytotoxic (confluency <70% of control); higher = enhanced IRF activity
# Outline: as §1
# [4] = agonist: 3'3'-cGAMP (STING) 10 ug/mL
# [5] = library stock concentration (final ~1000-fold dilution): 10 mM
# [6] = library stock concentration (final ~1000-fold dilution): 2 mM
compound,measurement,setting,value
Cc1nc(Nc2ncc(C(=O)Nc3c(C)cccc3Cl)s2)cc(N2CCN(CCO)CC2)n1.Cl (library stock concentration (final ~1000-fold dilution): 10 mM),IRF Lucia reporter activity,RAW-Dual [1]; [4],0.0778
same,IRF Lucia reporter activity,RAW-Dual [1]; agonist: LPS (TLR4) 0.1 ug/mL,1.07
Cc1nc(Nc2ncc(C(=O)Nc3c(C)cccc3Cl)s2)cc(N2CCN(CCO)CC2)n1.Cl,IRF Lucia reporter activity,RAW-Dual [2]; [5],0.77
COCCc1ccc(OCC(O)CNC(C)C)cc1.COCCc1ccc(OCC(O)CNC(C)C)cc1.O=C(O)CCC(=O)O (stereo unspecified),IRF Lucia reporter activity,RAW-Dual [2]; [5],1.03
COCCc1ccc(OCC(O)CNC(C)C)cc1.COCCc1ccc(OCC(O)CNC(C)C)cc1.O=C(O)CCC(=O)O (stereo unspecified) (library stock concentration (final ~1000-fold dilution): 10 mM),IRF Lucia reporter activity,RAW-Dual [1]; [4],0.95
same,IRF Lucia reporter activity,RAW-Dual [1]; agonist: LPS (TLR4) 0.1 ug/mL,0.608
CC1=C(C(=O)OC(C)C)C(c2cccc([N+](=O)[O-])c2)C(C(=O)OC2CN(C(c3ccccc3)c3ccccc3)C2)=C(N)N1 (stereo unspecified) (library stock concentration (final ~1000-fold dilution): 10 mM),IRF Lucia reporter activity,RAW-Dual [1]; [4],0.954
same,IRF Lucia reporter activity,RAW-Dual [1]; agonist: LPS (TLR4) 0.1 ug/mL,0.756
CC1=C(C(=O)OC(C)C)C(c2cccc([N+](=O)[O-])c2)C(C(=O)OC2CN(C(c3ccccc3)c3ccccc3)C2)=C(N)N1 (stereo unspecified),IRF Lucia reporter activity,RAW-Dual [2]; [5],1.16
COc1cc(C(=O)NS(=O)(=O)c2ccccc2C)ccc1Cc1cn(C)c2ccc(NC(=O)OC3CCCC3)cc12 (library stock concentration (final ~1000-fold dilution): 10 mM),IRF Lucia reporter activity,RAW-Dual [1]; [4],0.983
same,IRF Lucia reporter activity,RAW-Dual [1]; agonist: LPS (TLR4) 0.1 ug/mL,0.881
COc1cc(C(=O)NS(=O)(=O)c2ccccc2C)ccc1Cc1cn(C)c2ccc(NC(=O)OC3CCCC3)cc12,IRF Lucia reporter activity,RAW-Dual [2]; [5],1.04
COc1ccc(-c2cnc3c(-c4cccc5ncccc45)cnn3c2)cc1,IRF Lucia reporter activity,RAW-Dual [2]; [5],0.622
COc1ccc(-c2cnc3c(-c4cccc5ncccc45)cnn3c2)cc1 (library stock concentration (final ~1000-fold dilution): 10 mM),IRF Lucia reporter activity,RAW-Dual [1]; [4],0.587
same,IRF Lucia reporter activity,RAW-Dual [1]; agonist: LPS (TLR4) 0.1 ug/mL,0.513
CC(/C=C/C=C(\C)C(=O)OC1OC(COC2OC(CO)C(O)C(O)C2O)C(O)C(O)C1O)=C\C=C\C=C(C)\C=C\C=C(/C)C(=O)OC1OC(COC2OC(CO)C(O)C(O)C2O)C(O)C(O)C1O (stereo unspecified) (library stock concentration (final ~1000-fold dilution): 10 mM),IRF Lucia reporter activity,RAW-Dual [1]; [4],0.95
same,IRF Lucia reporter activity,RAW-Dual [1]; agonist: LPS (TLR4) 0.1 ug/mL,1.01
Cc1ccc(C2OC(CO)C(O)C(O)C2O)cc1Cc1ccc(-c2ccc(F)cc2)s1 (stereo unspecified),IRF Lucia reporter activity,RAW-Dual [2]; [5],0.952
Cc1ccc(C2OC(CO)C(O)C(O)C2O)cc1Cc1ccc(-c2ccc(F)cc2)s1 (stereo unspecified) (library stock concentration (final ~1000-fold dilution): 10 mM),IRF Lucia reporter activity,RAW-Dual [1]; [4],1.14
same,IRF Lucia reporter activity,RAW-Dual [1]; agonist: LPS (TLR4) 0.1 ug/mL,0.886
COc1ccc(C2OCC3C(c4ccc5c(c4)OCO5)OCC23)cc1OC (stereo unspecified) (library stock concentration (final ~1000-fold dilution): 10 mM),IRF Lucia reporter activity,RAW-Dual [1]; [4],0.966
same,IRF Lucia reporter activity,RAW-Dual [1]; agonist: LPS (TLR4) 0.1 ug/mL,1.02
O=C(COc1ccc(Cl)cc1)NC1CCC(NC(=O)COc2ccc(Cl)cc2)CC1 (stereo unspecified) (library stock concentration (final ~1000-fold dilution): 2 mM),IRF Lucia reporter activity,RAW-Dual [1]; [4],1.18
same,IRF Lucia reporter activity,RAW-Dual [1]; agonist: LPS (TLR4) 0.1 ug/mL,1.02
O=C(COc1ccc(Cl)cc1)NC1CCC(NC(=O)COc2ccc(Cl)cc2)CC1 (stereo unspecified),IRF Lucia reporter activity,RAW-Dual [2]; [6],1.22
COc1cc2ncnc(Oc3cccc(NC(=O)Nc4cc(C(C)(C)C(F)(F)F)on4)c3)c2cc1OC (library stock concentration (final ~1000-fold dilution): 10 mM),IRF Lucia reporter activity,RAW-Dual [1]; [4],0.728
same,IRF Lucia reporter activity,RAW-Dual [1]; agonist: LPS (TLR4) 0.1 ug/mL,0.555
NCC(=O)Nc1ccc(-n2nc(C(F)(F)F)cc2-c2ccc3c(ccc4ccccc43)c2)cc1 (library stock concentration (final ~1000-fold dilution): 10 mM),IRF Lucia reporter activity,RAW-Dual [1]; [4],0.0488
same,IRF Lucia reporter activity,RAW-Dual [1]; agonist: LPS (TLR4) 0.1 ug/mL,0.105
NCC(=O)Nc1ccc(-n2nc(C(F)(F)F)cc2-c2ccc3c(ccc4ccccc43)c2)cc1,IRF Lucia reporter activity,RAW-Dual [2]; [5],0.122
COc1ccc(-c2nc3cc(C4=NNC(=O)CC4C)ccc3[nH]2)cc1 (stereo unspecified) (library stock concentration (final ~1000-fold dilution): 10 mM),IRF Lucia reporter activity,RAW-Dual [1]; [4],0.294
same,IRF Lucia reporter activity,RAW-Dual [1]; agonist: LPS (TLR4) 0.1 ug/mL,0.934
COc1ccc(-c2nc3cc(C4=NNC(=O)CC4C)ccc3[nH]2)cc1 (stereo unspecified),IRF Lucia reporter activity,RAW-Dual [2]; [5],1.24
Cc1ccc(S(=O)(=O)n2c(N)nc3ccccc32)cc1,IRF Lucia reporter activity,RAW-Dual [2]; [5],1.12 ± 0.18
Cc1ccc(S(=O)(=O)n2c(N)nc3ccccc32)cc1 (library stock concentration (final ~1000-fold dilution): 10 mM),IRF Lucia reporter activity,RAW-Dual [1]; [4],1.17 ± 0.022
same,IRF Lucia reporter activity,RAW-Dual [1]; agonist: LPS (TLR4) 0.1 ug/mL,0.927 ± 0.074
Br.Cc1ccc(Sc2ccccc2N2CCNCC2)c(C)c1 (library stock concentration (final ~1000-fold dilution): 10 mM),IRF Lucia reporter activity,RAW-Dual [3]; [4],0.325
same,IRF Lucia reporter activity,RAW-Dual [3]; agonist: LPS (TLR4) 0.1 ug/mL,0.0699
CNC(=O)c1ccc(-c2cnc3ncc(Cc4ccc5ncccc5c4)n3n2)cc1F (library stock concentration (final ~1000-fold dilution): 2 mM),IRF Lucia reporter activity,RAW-Dual [1]; [4],0.848
same,IRF Lucia reporter activity,RAW-Dual [1]; agonist: LPS (TLR4) 0.1 ug/mL,1
CNC(=O)c1ccc(-c2cnc3ncc(Cc4ccc5ncccc5c4)n3n2)cc1F,IRF Lucia reporter activity,RAW-Dual [2]; [6],1.16
